To fix the notation:
B1: OR4K15 (parent)
chain: GUUAACGGUCAUAGGCCAUGGAAACUAGGAGCACCAUUUCGCUGCCAGUGAAGAAAUGAACAAAGAAAAUCUGGGCCAGGCAGGCAUCAAAAGAAAUAGUCUUGCGCUCAACCAGAAAGUCUGUAAUCAUUUUAAGGGUA

The results in this text go back to the RNAGym collection of RNA variant scans (doi:10.7554/elife.90254).

Read counts are not given, so values of variants with three or more changes are uncertain.

The variants in this data set derive from B1. Kind of data set: self-cleavage, relative activity (ratio to wild type); higher = more cleavage; in vitro, sequencing; the parent is a self-cleaving ribozyme.
On to A67G A89U A114U A140G, for which the self-cleavage was determined as 0.04.

On to A67G A98G U132C, for which the self-cleavage was 1.17.

Regarding A63G A67G A96U, the self-cleavage stood at 2.34.

As to A68G A82G A89G A94G, the self-cleavage was 0.43.

On to A68G A90G U103C, for which the self-cleavage was 0.74.

As for A66G A67G U102C U108C A129G, the self-cleavage stood at 0.02.

In the case of A64G A78G A92G, the self-cleavage is 0.2.

In the case of A66G A69G U108C A134G, the self-cleavage is 0.

With A63G U102C C107G G123U, the self-cleavage stood at 0.03.

As for A68G A96G U97C U108C, the self-cleavage was determined as 0.02.

Take A68U U72C A89U: the self-cleavage was 0.3.

Take A64G U72C U127C: the self-cleavage is 0.14.

Turning to A62U A110U U133C U139C, the self-cleavage was determined as 1.31.

Turning to A64G U102A U120C, the self-cleavage is 1.06.

A63U U103A A117C: the self-cleavage came out at 0.16.

On to A66G A78C A89G, for which the self-cleavage was 0.36.

As for A62U U70C A89G A96G A129G, the self-cleavage came out at 0.09.

Consider A66G U70C C113U A118G A125G, for which the self-cleavage is 0.

Turning to A69U A89U U102C U130C, the self-cleavage was 1.97.

As for A64G A67G A69G A86G, the self-cleavage came to 0.37.

A63G U72C U87C: the self-cleavage amounted to 0.2.

Take A66G U72A A129U: the self-cleavage is 0.09.

In the case of A68G A82C A91G, the self-cleavage turned out to be 0.08.

For the variant A64U A92G A118G, the self-cleavage was 0.74.

As to A67G A68G U72C A90G A96G, the self-cleavage was 0.3.

Consider A67U U102A A114G A117G, for which the self-cleavage stood at 0.6.

On to A66G A68G A69G U108C, for which the self-cleavage was 0.07.

On to A69G U103G A126G U139C, for which the self-cleavage was 0.02.

In the case of A67U A86C A96G U122A U127C, the self-cleavage worked out at 0.74.

As for A68G U87A U132C, the self-cleavage turned out to be 1.26.

For the variant A66U A78G U103C A114U A134G U139C, the self-cleavage amounted to 0.

For the variant A63G U72C A116U U139C, the self-cleavage worked out at 0.02.

Consider A62U U131C U139C, for which the self-cleavage worked out at 1.06.

Take A69U U87C U108C A118G: the self-cleavage stood at 0.01.

On to A67G A82G A90G U120C, for which the self-cleavage stood at 0.13.

As for A63G A68G A92U, the self-cleavage worked out at 1.72.

Consider A68G G115U U122C, for which the self-cleavage was found to be 0.04.

Take A67G U108G A116U U127C: the self-cleavage was found to be 0.

For U70A A96G A117G, the self-cleavage stood at 0.91.

Take A67G U87C U127C: the self-cleavage was determined as 0.7.

For the variant A62U A89C A92G A114G, the self-cleavage stood at 0.14.

On to A63G G106A A117G, for which the self-cleavage amounted to 0.01.

For A67U U127C A135G, the self-cleavage amounted to 1.84.

Regarding A63G A82U A89G, the self-cleavage was 0.15.

In the case of A69G A78U A114G A126C, the self-cleavage was 0.01.

With U70A A95G U103C A135G, the self-cleavage came to 1.05.

Consider A64G A78G A86U A116U U132C, for which the self-cleavage was determined as 0.06.

Consider A67G A117G A129G, for which the self-cleavage is 1.22.

Turning to A63G A66G U124A, the self-cleavage was 0.32.

With A63U U108C A140G, the self-cleavage came out at 0.

Turning to U70A A92U A98U A116G A126G, the self-cleavage came to 1.92.

Regarding A66G A82U C101A, the self-cleavage was 0.04.

Take A63U A110G A111C: the self-cleavage was found to be 0.04.

As for A63G A90U U131C, the self-cleavage worked out at 1.89.

Take A64U A82G A114G A117G: the self-cleavage is 0.16.

A68G U87A A94G U127A: the self-cleavage is 2.26.

As to A66G U72A A118G G119U, the self-cleavage was 0.16.

On to A67G A92G U103C U139C, for which the self-cleavage is 0.94.

A63G A92G U108C: the self-cleavage stood at 0.

Turning to U70C A78G A96G U103C A135G, the self-cleavage is 0.11.

As for A68G U97C U108C A135U, the self-cleavage was 0.

Turning to A66G A67G A94G A95G A117G, the self-cleavage came to 1.18.

In the case of A69G U72C U87A U133C, the self-cleavage stood at 0.37.

Consider A69G A98G G106A A110G G119A U122A, for which the self-cleavage was 0.02.

In the case of A62U U72G U87C U122G, the self-cleavage came to 0.18.

Turning to A63G A89C A96G A118U A125G, the self-cleavage is 0.33.

On to A69C U87C U97G A116G, for which the self-cleavage was determined as 0.67.

Take A64G A67G A117G A126G: the self-cleavage stood at 1.4.

With A64G A78U A82G A92G, the self-cleavage stood at 0.12.

For the variant A63G A68G U131C, the self-cleavage amounted to 1.41.

On to A64U A82G A95G, for which the self-cleavage came out at 0.4.

Consider A67G U87C A129G, for which the self-cleavage was determined as 0.48.

In the case of A66G U72C U131C A135G, the self-cleavage was 0.34.

Turning to A64G A92G A140G, the self-cleavage came out at 2.21.

Take A67G A91G U131C: the self-cleavage turned out to be 0.9.

A64G U87C A94G: the self-cleavage came out at 1.03.

For A67G A82U A135G, the self-cleavage turned out to be 0.18.

Take A62U A98C U103C: the self-cleavage stood at 1.52.

In the case of A66G A90G U108A A114U, the self-cleavage was 0.

For A67G A68G U102A, the self-cleavage was determined as 0.67.

In the case of A66G A86G A110G, the self-cleavage was determined as 0.17.

In the case of A68G A78U A86G A110G A118G, the self-cleavage came out at 0.03.

In the case of A63G A64G A68G U102C, the self-cleavage was determined as 1.82.

Turning to A63G A114U U122A, the self-cleavage was 0.

For A67G A86G U102C A118U, the self-cleavage is 0.88.

With A68G A118G A135G, the self-cleavage amounted to 1.54.

As for A68G U72C A89U A90G, the self-cleavage is 0.1.

As to A69G G83A A89G, the self-cleavage was found to be 1.64.

Turning to A69G U103C U122A, the self-cleavage was 1.

As for A68G U70C C109A, the self-cleavage turned out to be 0.21.

For A66G A89U U139A, the self-cleavage was 2.27.

As for A68G U100C A110G A126G, the self-cleavage worked out at 0.12.

For the variant A67U A114G U124C, the self-cleavage is 0.37.

Turning to A69G A78U U122C, the self-cleavage worked out at 0.05.

As to A68G C109U A111U, the self-cleavage stood at 0.09.

A68G A111G A118G: the self-cleavage is 0.01.

Turning to A69G A82G A96G, the self-cleavage came out at 0.12.

For the variant A66G A67G A118G, the self-cleavage was 1.14.

For A64G A118G U122C, the self-cleavage is 0.55.

On to A63G A90U A117G, for which the self-cleavage amounted to 1.85.

As to A64U U72C A116U, the self-cleavage came to 0.07.

For the variant A66G U102C A114G, the self-cleavage amounted to 0.78.

For the variant A63G A89U A116G U127C, the self-cleavage came to 1.16.

For A64G U97C U102C U103C, the self-cleavage worked out at 0.14.

In the case of A66G A69G U108A, the self-cleavage amounted to 0.05.

A63U A64C A66G U102C A134G: the self-cleavage is 2.69.

For the variant A67G A69G C109U, the self-cleavage was 0.49.

In the case of A66U A78U A89G, the self-cleavage came to 0.31.

A62U G80C U87C A89U: the self-cleavage was 0.06.

For A62U A67U A94G U100A, the self-cleavage came to 1.09.

As for A68G G83A A89C U122G, the self-cleavage is 2.47.

Turning to A68G U103C A114U, the self-cleavage worked out at 0.06.

As for A68G U72C A95G U108A, the self-cleavage was found to be 0.02.

On to A64G A90G A96G A135G, for which the self-cleavage stood at 1.06.

For U70A A117G A118G U130C, the self-cleavage turned out to be 0.15.

Consider A63G A66G A116G, for which the self-cleavage was 0.51.

Take A68G A92G A135G: the self-cleavage is 1.17.

For A67G A91G A95G A116G, the self-cleavage is 1.04.

For A67G A78U U102A U108C, the self-cleavage was 0.01.

In the case of A68G A94G A111G A118G U127A, the self-cleavage is 0.01.

A63C U87C U103C: the self-cleavage turned out to be 0.81.

As for U70C A78C U124A, the self-cleavage came to 0.03.

For the variant A67G C76U C88U A111G U131C, the self-cleavage was determined as 0.

Turning to A66G A69G A78G, the self-cleavage was 0.34.

In the case of A69G A78U U102G U108A, the self-cleavage amounted to 0.01.

On to A63G G99A U122A, for which the self-cleavage was determined as 0.21.

For the variant A66U A117G A118G A134G, the self-cleavage was determined as 1.4.

As to A66G A67G U87C A95G U108C U120A U130C, the self-cleavage turned out to be 0.01.

Regarding A62U A86C A118G, the self-cleavage came to 0.1.

As to A66G A92G A126G, the self-cleavage was found to be 0.91.

In the case of A67G A90G U103C, the self-cleavage came out at 1.07.

As for A67G A92G A125G, the self-cleavage came to 0.88.

With A66G A69G A94G A135G, the self-cleavage was found to be 0.51.

For the variant A67G U72C U102C, the self-cleavage amounted to 0.3.

Turning to A63U U70A A78U, the self-cleavage came out at 0.47.

Turning to A68G A110U U127C, the self-cleavage was 0.56.

Regarding A63G A66U U108C, the self-cleavage is 0.12.

Turning to A64G A89G A114U, the self-cleavage stood at 0.04.

For A69U C101A A111U, the self-cleavage is 0.02.

As for A68G G119A U122C, the self-cleavage came to 2.32.

Take A64G A114U U122A G138U: the self-cleavage amounted to 0.01.

As for A62U U122A A126G, the self-cleavage was 1.5.

Take A64G A68G A86G: the self-cleavage was determined as 1.31.

Take A63G A110G U127C: the self-cleavage came out at 0.32.

Turning to A68G U102C U108C, the self-cleavage was found to be 0.

As for A64G A86G U87C, the self-cleavage is 0.64.

Take A62U A68G A114G A116G U122A: the self-cleavage was 0.06.

With A68G A86U A111U, the self-cleavage came out at 0.23.

For A68G A78G A129G, the self-cleavage was determined as 0.06.

In the case of A66G U100A A118C A140G, the self-cleavage stood at 0.63.

In the case of A63G A68G U122C, the self-cleavage was 0.71.

A68G A91G U120C U131C: the self-cleavage is 0.32.

Consider A66G A111G A114G U122C, for which the self-cleavage was determined as 0.

Turning to A66G A78U U124C, the self-cleavage stood at 0.47.

As to A64G A66G U87A U120G, the self-cleavage was determined as 1.72.

For A68G A116G U132C, the self-cleavage came to 0.84.

With A67U G75A A86G A96G, the self-cleavage was 0.09.

A69G U72C U102C: the self-cleavage was 0.35.

Turning to A64G U131C A140G, the self-cleavage came to 0.91.

For A66G A67G C81U U120C, the self-cleavage came to 0.49.

In the case of A67G C113U U120C A125G, the self-cleavage turned out to be 0.

For the variant A66U A116U U131C, the self-cleavage turned out to be 0.03.

Take A69G A78G A90G: the self-cleavage was 0.3.

Consider A63G A68G U72C, for which the self-cleavage amounted to 0.31.

For the variant A67G U122C A125G, the self-cleavage is 0.3.

Take A67G A69G A116G: the self-cleavage came out at 0.56.

For the variant A68G A96G U97A A98G, the self-cleavage was found to be 0.79.
